Source: the supplement of paper PMC8728848
This is one part of the list.

Columns and labels:
Assay in all cases: glycan array binding signal (z-score within array); higher = stronger binding
Conditions in all cases: glycan notation: IUPAC condensed, linker removed
[1] = biological target: Fuc(a1-2)Gal(b1-4)GlcNAc(b1-3)Gal(b1-4)GlcNAc(b1-3)Gal(b1-4)GlcNAc
In short: (§1)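 Glycan array binding is given as a within-array Z-score, which can be read as non-binding when negative. The arrays, 3228 of them, came from the Consortium for Functional Glycomics database and were retained only where the protein sequence was available. Z-scores were averaged across arrays of the same protein sequence at different concentrations or buffers and across linkers.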

[2] = biological target: Fuc(a1-2)Gal(b1-4)GlcNAc(b1-3)GalNAc
In short: as §1

[3] = biological target: Fuc(a1-2)Gal(b1-4)GlcNAc(b1-3)[Fuc(a1-2)Gal(b1-4)GlcNAc(b1-6)]GalNAc
In short: as §1

[4] = biological target: Fuc(a1-2)Gal(b1-4)GlcNAc(b1-3)[Fuc(a1-3)[Gal(b1-4)]GlcNAc(b1-6)]Gal(b1-4)Glc
In short: as §1

[5] = biological target: Fuc(a1-2)Gal(b1-4)GlcNAc(b1-6)GalNAc
In short: as §1

[6] = biological target: Fuc(a1-2)Gal(b1-4)GlcNAc6S
In short: as §1

[7] = biological target: Fuc(a1-2)Gal(b1-4)[Fuc(a1-3)]GlcNAc
In short: as §1

[8] = biological target: Fuc(a1-2)Gal(b1-4)[Fuc(a1-3)]GlcNAc(b1-2)Man(a1-3)[Fuc(a1-2)Gal(b1-4)[Fuc(a1-3)]GlcNAc(b1-2)Man(a1-6)]Man(b1-4)GlcNAc(b1-4)[Fuc(a1-6)]GlcNAc
In short: as §1

[9] = biological target: Fuc(a1-2)Gal(b1-4)[Fuc(a1-3)]GlcNAc(b1-2)[Fuc(a1-2)Gal(b1-4)[Fuc(a1-3)]GlcNAc(b1-4)]Man(a1-3)[Fuc(a1-2)Gal(b1-4)[Fuc(a1-3)]GlcNAc(b1-2)Man(a1-6)]Man(b1-4)GlcNAc(b1-4)GlcNAc
In short: as §1

[10] = biological target: Fuc(a1-2)Gal(b1-4)[Fuc(a1-3)]GlcNAc(b1-3)Gal(b1-4)[Fuc(a1-3)]GlcNAc
In short: as §1

[11] = biological target: Fuc(a1-2)Gal(b1-4)[Fuc(a1-3)]GlcNAc(b1-3)Gal(b1-4)[Fuc(a1-3)]GlcNAc(b1-3)Gal(b1-4)[Fuc(a1-3)]GlcNAc
In short: as §1

[12] = biological target: Fuc(a1-2)Gal(b1-4)[Fuc(a1-3)]GlcNAc(b1-3)GalNAc
In short: as §1

[13] = biological target: Fuc(a1-2)Gal(b1-4)[Fuc(a1-3)]GlcNAc(b1-3)[Neu5Ac(a2-6)Gal(b1-4)GlcNAc(b1-6)]Gal(b1-4)Glc
In short: as §1

[14] = biological target: Fuc(a1-2)Gal3S(b1-4)GlcNAc
In short: as §1

[15] = biological target: Fuc(a1-2)Gal6S(b1-3)GlcNAc
In short: as §1

[16] = biological target: Fuc(a1-2)Gal6S(b1-3)GlcNAc6S
In short: as §1

Fuc(a1-2)Gal6S(b1-4)Glc = biological target: Fuc(a1-2)Gal6S(b1-4)Glc
In short: as §1

[17] = biological target: Fuc(a1-2)Gal6S(b1-4)Glc6S
In short: as §1

Fuc(a1-2)[Gal(a1-3)]Gal = biological target: Fuc(a1-2)[Gal(a1-3)]Gal
In short: as §1

[18] = biological target: Fuc(a1-2)[Gal(a1-3)]Gal(b1-3)GalNAc
In short: as §1

[19] = biological target: Fuc(a1-2)[Gal(a1-3)]Gal(b1-3)GalNAc(b1-3)Gal(a1-4)Gal(b1-4)Glc
In short: as §1

[20] = biological target: Fuc(a1-2)[Gal(a1-3)]Gal(b1-3)GlcNAc
In short: as §1

[21] = biological target: Fuc(a1-2)[Gal(a1-3)]Gal(b1-3)GlcNAc(b1-2)Man(a1-3)[Fuc(a1-2)[Gal(a1-3)]Gal(b1-3)GlcNAc(b1-2)Man(a1-6)]Man(b1-4)GlcNAc(b1-4)GlcNAc
In short: as §1

[22] = biological target: Fuc(a1-2)[Gal(a1-3)]Gal(b1-3)GlcNAc(b1-2)Man(a1-3)[Fuc(a1-2)[Gal(a1-3)]Gal(b1-3)GlcNAc(b1-2)Man(a1-6)]Man(b1-4)GlcNAc(b1-4)[Fuc(a1-6)]GlcNAc
In short: as §1

[23] = biological target: Fuc(a1-2)[Gal(a1-3)]Gal(b1-3)GlcNAc(b1-3)GalNAc
In short: as §1

[24] = biological target: Fuc(a1-2)[Gal(a1-3)]Gal(b1-3)GlcNAc(b1-6)GalNAc
In short: as §1

[25] = biological target: Fuc(a1-2)[Gal(a1-3)]Gal(b1-4)Glc
In short: as §1

[26] = biological target: Fuc(a1-2)[Gal(a1-3)]Gal(b1-4)GlcNAc
In short: as §1

[27] = biological target: Fuc(a1-2)[Gal(a1-3)]Gal(b1-4)GlcNAc(b1-2)Man
In short: as §1

[28] = biological target: Fuc(a1-2)[Gal(a1-3)]Gal(b1-4)GlcNAc(b1-2)Man(a1-3)[Fuc(a1-2)[Gal(a1-3)]Gal(b1-4)GlcNAc(b1-2)Man(a1-6)]Man(b1-4)GlcNAc(b1-4)GlcNAc
In short: as §1

B1: PX9961X-pdi-531-24-531 (Parabacteroides distasonis) (protein)
chain: DLTEEIHSSVIAENYYNNAGEVMAAMMRPWGHFCGTMQVAQSPWSCNELSSDCAAWPQKGRHGYDNGDWIRLHRHQWIPTDGQVVDAWKKLFEGIGYANNFLTDTENIDFEALQVPMSKAQAQAEMRVYRAYCYWYVMDMFGTAPICEKIGEINPSSKSRAELFAWIEKELNESIPSLSESKTETYGRVSKWGAYALLARLYLNAEIYTGQARWDDCIAACDELAKGGFALDKKWNDTFRADNDKRSTEIIWSIVYDEVYAKGMGWYQRWLHYAHQTGWDLQSGPWNGLVTQPTFYDSFADNDLRKIEGFLIGKQYPRKVDENGNYYYDTTAEPLKGSEEYNGQDLVFVNYIKSMTEGEENSGARSIKYEIQPGTTGDMNNDWVMFRYSEVIYNKAEALMRKNGGKATQEVVDMINSVRQRSFKAEDWEKAKYTTATLTMDEFLAEKGREFAFEGIRRTDLVRFNKFVTTSWWDKTASNEPKRNIFPIPQRQLDANANLSPNEANSLF
For B1, the “glycan array binding signal (z-score)” value [1] was 0.206, the “glycan array binding signal (z-score)” value [2] was -0.684 and the “glycan array binding signal (z-score)” value [3] was -0.351. The “glycan array binding signal (z-score)” value [4] was -0.218, the “glycan array binding signal (z-score)” value [5] was 0.242 and the “glycan array binding signal (z-score)” value [6] was 0.154. The “glycan array binding signal (z-score)” value [7] was -0.404, the “glycan array binding signal (z-score)” value [8] was -0.289 and the “glycan array binding signal (z-score)” value [9] was 1.03. The “glycan array binding signal (z-score)” value [10] was -0.915, the “glycan array binding signal (z-score)” value [11] was 0.059 and the “glycan array binding signal (z-score)” value [12] was 0.289. The “glycan array binding signal (z-score)” value [13] was -0.307, the “glycan array binding signal (z-score)” value [14] was -0.039 and the “glycan array binding signal (z-score)” value [15] was -0.189. The “glycan array binding signal (z-score)” value [16] was -0.069, the “glycan array binding signal (z-score)” value (Fuc(a1-2)Gal6S(b1-4)Glc) was -0.727 and the “glycan array binding signal (z-score)” value [17] was -0.335. The “glycan array binding signal (z-score)” value (Fuc(a1-2)[Gal(a1-3)]Gal) was -0.491, the “glycan array binding signal (z-score)” value [18] was -0.203 and the “glycan array binding signal (z-score)” value [19] was -0.567. For the same binder, the “glycan array binding signal (z-score)” value [20] was -0.17, the “glycan array binding signal (z-score)” value [21] was 1.15 and the “glycan array binding signal (z-score)” value [22] was 1.56. The “glycan array binding signal (z-score)” value [23] was 0.024, the “glycan array binding signal (z-score)” value [24] was 0.385 and the “glycan array binding signal (z-score)” value [25] was 0.973. The “glycan array binding signal (z-score)” value [26] was -0.931, the “glycan array binding signal (z-score)” value [27] was -0.156 and the “glycan array binding signal (z-score)” value [28] was 0.429.
